First the molecules themselves.
B1: CRTC1^270 (amino acids 1-270 of CRTC1 fused to Dendra2), wild type (domain or fragment, UniProt Q68ED7 1-270)
chain: MATSNNPRKFSEKIALHNQKQAEETAAFEEVMKDLSLTRAARLQLQKSQYLQLGPSRGQYYGGSLPNVNQIGSSSVDLAFQTPFQSSGLDTSRTTRHHGLVDRVYRERGRLGSPHRRPLSVDKHGRQADSCPYGTVYLSPPADTSWRRTNSDSALHQSTMTPSQAESFTGGSQDAHQKRVLLLTVPGMEDTGAETDKTLSKQSWDSKKAGSRPKSCEVPGINIFPSADQENTTALIPATHNTGGSLPDLTNIHFPSPLPTPLDPEEPPFP
modifications: phosphorylated in neurons (sites not determined for this sample)
B2: endogenous CRTC1 (CREB-regulated transcriptional coactivator 1) (protein, UniProt Q157S1 1-630)
chain: MATSNNPRKFSEKIALHNQKQAEETAAFEEVMKDLSLTRAARLQLQKSQYLQLGPSRGQYYGGSLPNVNQIGSSSMDLSFQTPFQSSGLDTSRTTRHHGLVDRVYRERGRLGSPHRRPLSVDKHGRQADSCPYGTVYLSPPADTSWRRTNSDSALHQSTMTPTQAESFTGGPQDAHQKRVLLLTVPGMEETGSETDKTLSKQSWDSKKAGSRPKSCEVPGINIFPSADQENTAALIPATHNTGGSLPDLSTIHFPSPLPTPLDPEEPPFPALTSSGSTGSLAHLGVGGTGQGMNTPSSSPQRRPAVVSPLSLSTEARRQQAQQVPPTLSPLSPITQAVAMDALSLEQQLPYAFFTQAGSQQPPPQPQPPPPPPPVSQQQPPPPQVSVGLPQGGPLLPSASLTRGPQLPPLAVTVPSTLPQSPTESPGQPPMGIDVTSAPALQYRTGAGSPATQSPTSPVSNQGFSPGSSPQHTSTLGSVFGDAYYEQQMTARQANALSRQLEQFNMMENAISSSSLYNPGSTLNYSQAAMMGLSGSHGGLQDPQQLGYAGHGGIPNIILTVTGESPPSLSKELSSTLAGVSDVSFDSDHQFPLDELKIDPLTLDGLHMLNDPDMVLADPATEDTFRMDRL
B3: CRTC1^270 S245A (domain or fragment, UniProt Q68ED7 1-270)
chain: MATSNNPRKFSEKIALHNQKQAEETAAFEEVMKDLSLTRAARLQLQKSQYLQLGPSRGQYYGGSLPNVNQIGSSSVDLAFQTPFQSSGLDTSRTTRHHGLVDRVYRERGRLGSPHRRPLSVDKHGRQADSCPYGTVYLSPPADTSWRRTNSDSALHQSTMTPSQAESFTGGSQDAHQKRVLLLTVPGMEDTGAETDKTLSKQSWDSKKAGSRPKSCEVPGINIFPSADQENTTALIPATHNTGGALPDLTNIHFPSPLPTPLDPEEPPFP
B4: CRTC1^270 S64A (domain or fragment, UniProt Q68ED7 1-270)
chain: MATSNNPRKFSEKIALHNQKQAEETAAFEEVMKDLSLTRAARLQLQKSQYLQLGPSRGQYYGGALPNVNQIGSSSVDLAFQTPFQSSGLDTSRTTRHHGLVDRVYRERGRLGSPHRRPLSVDKHGRQADSCPYGTVYLSPPADTSWRRTNSDSALHQSTMTPSQAESFTGGSQDAHQKRVLLLTVPGMEDTGAETDKTLSKQSWDSKKAGSRPKSCEVPGINIFPSADQENTTALIPATHNTGGSLPDLTNIHFPSPLPTPLDPEEPPFP
B5: CRTC1^270 S64A/S151A/S245A (domain or fragment, UniProt Q68ED7 1-270)
chain: MATSNNPRKFSEKIALHNQKQAEETAAFEEVMKDLSLTRAARLQLQKSQYLQLGPSRGQYYGGALPNVNQIGSSSVDLAFQTPFQSSGLDTSRTTRHHGLVDRVYRERGRLGSPHRRPLSVDKHGRQADSCPYGTVYLSPPADTSWRRTNADSALHQSTMTPSQAESFTGGSQDAHQKRVLLLTVPGMEDTGAETDKTLSKQSWDSKKAGSRPKSCEVPGINIFPSADQENTTALIPATHNTGGALPDLTNIHFPSPLPTPLDPEEPPFP
B6: CRTC1^270 S151A (domain or fragment, UniProt Q68ED7 1-270)
chain: MATSNNPRKFSEKIALHNQKQAEETAAFEEVMKDLSLTRAARLQLQKSQYLQLGPSRGQYYGGSLPNVNQIGSSSVDLAFQTPFQSSGLDTSRTTRHHGLVDRVYRERGRLGSPHRRPLSVDKHGRQADSCPYGTVYLSPPADTSWRRTNADSALHQSTMTPSQAESFTGGSQDAHQKRVLLLTVPGMEDTGAETDKTLSKQSWDSKKAGSRPKSCEVPGINIFPSADQENTTALIPATHNTGGSLPDLTNIHFPSPLPTPLDPEEPPFP

The chains behind the UniProt entries cited, without tags or fusion partners.
UniProt P62258: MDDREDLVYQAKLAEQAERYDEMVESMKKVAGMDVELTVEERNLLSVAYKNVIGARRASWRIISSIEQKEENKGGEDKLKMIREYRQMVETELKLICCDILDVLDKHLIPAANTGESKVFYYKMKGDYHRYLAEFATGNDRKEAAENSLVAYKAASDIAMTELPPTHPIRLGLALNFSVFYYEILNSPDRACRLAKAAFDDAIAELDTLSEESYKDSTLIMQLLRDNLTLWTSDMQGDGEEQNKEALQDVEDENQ

These are yes or no findings as the source states them, for the method shown. In cells and extracts the contact can be indirect. Some results given as binding are weak or reduced against the parent protein; the word gives no strength. Where a sequence is shown, tags or fusion partners need not be part of it.

One experiment has as its target GST-14-3-3ε (UniProt P62258). Kind of experiment: pull-down; as a1, but with phosphatase-treated CRTC1^270 (lysate treated with phosphatase); GST-14-3-3ε on glutathione beads; immunoblot; only the target purified. For orientation: Immunoblotting shows a protein as a band on a membrane.
With B1, the binding result is recorded as “no binding (condition: phosphatase-treated CRTC1^270)”.

In a further experiment the target is GST-14-3-3ε (UniProt P62258). The experiment in a line: pull-down; purified GST-14-3-3ε bound on glutathione beads; lysates of lentivirus-transduced cortical neurons (25 mM Tris pH 7.4, 137 mM NaCl, 1% NP40, 10% glycerol, protease and phosphatase inhibitors); beads washed extensively; immunoblot with antibodies against GST or CRTC1; only the target purified.
In the case of B2, the binding result is on record as “binds”.
Consider B1, for which the binding result is recorded as “binds”.
Same read-out and setting: in the case of B3 it was “binds”; in that of B4, “binds”; in that of B5, “no binding”.
The same measure, in the same setting: the entry for B6 is “binds”.

For the origin of these results see paper PMC4560099.
